The source of these data is PMC13083723 (Patterns, 2026).

Molecules are shown by their SMILES. The campaign covered roughly 5,400 compounds. About 190 (3.5%) showed an effect of 50% or more. This is one part of the list.

The assay concerns Vero-E6. As to the kind of experiment: primary screen, phospholipidosis by LipidTOX staining; higher = more effect of the substance. The following applies: 10 µM. An outline of the steps:
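Drug-induced phospholipidosis detected with HCS LipidTOX Red reagent in Vero-E6 cells. Compounds tested at 10 μM, with amiodarone (10 μM) as positive control and DMSO (0.1 v/v %) as vehicle.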
On to `C#C[C@]1(O)CC[C@H]2[C@@H]3CCC4=CC(=O)CC[C@@H]4[C@H]3C(=C)C[C@@]21CC`, for which the result_ITMP is recorded as -2.77%.

Turning to `NC(=O)c1ccc(I)c([N+](=O)[O-])c1`, the result_ITMP worked out at 3.98%.

For the compound `c1ccc(-c2oc3ncnc(NC[C@@H]4CCCO4)c3c2-c2ccccc2)cc1`, the result_ITMP turned out to be 2.58%.

In the case of `O=C(O)c1cc(/N=N/c2ccc(S(=O)(=O)Nc3ccccn3)cc2)ccc1O`, the result_ITMP is listed as -3.52%.

Take `COCC1(CO)C(=O)C2CCN1CC2` (centres unmarked): the result_ITMP was -2.09%.

In the case of `O=C1NC(c2ccccc2)(c2ccccc2)C(=O)N1COP(=O)([O-])[O-]`, the result_ITMP is -0.37%.

With `CCOc1ccc(C(=O)OCCN(CC)CC)cc1`, the result_ITMP stood at 0.82%.

Regarding `CC1CCN=C(N)S1` (centres unmarked), the result_ITMP amounted to 0.17%.

For the compound `N#C/C(=C\c1ccc(O)c(O)c1)C(=O)NCCCc1ccccc1`, the result_ITMP is listed as -1.59%.

Consider `C/C=C1/[C@H]2C=C(C)C[C@]1(N)c1ccc(=O)[nH]c1C2`, for which the result_ITMP is -2.16%.

In the case of `C/C(=C\C(=O)OCCCCCCCCC(=O)O)C[C@@H]1OC[C@H](C[C@@H]2O[C@H]2[C@@H](C)[C@H](C)O)[C@@H](O)[C@H]1O`, the result_ITMP amounted to 1.19%.

As to `C[C@]12CCC(=O)C=C1CCC1C2[C@@H](O)C[C@@]2(C)C1CC[C@]2(O)C(=O)CO` (some centres unmarked), the result_ITMP is listed as -6.26%.

Consider `CCc1cccc(CC)c1NC(=O)CN(CC(=O)O)CC(=O)O`, for which the result_ITMP was -4.82%.

Consider `Cc1[nH]nc(C(F)(F)F)c1Cc1sc2c(c1C(=O)N1C[C@](C)(O)CO1)c(=O)n(C)c(=O)n2C(C)C`, for which the result_ITMP is listed as 0.28%.

For `O=c1oc2cc(O)ccc2s1`, the result_ITMP was -11.7%.

Consider `C[C@@H]1CC[C@@]2(OC1)O[C@H]1C[C@H]3[C@@H]4CC=C5C[C@@H](O[C@@H]6O[C@H](CO)[C@@H](O[C@@H]7O[C@@H](C)[C@H](O)[C@@H](O)[C@H]7O)[C@H](O)[C@H]6O[C@@H]6O[C@@H](C)[C@H](O)[C@@H](O)[C@H]6O)CC[C@]5(C)[C@H]4CC[C@]3(C)[C@H]1[C@@H]2C`, for which the result_ITMP came out at 18.9%.

Regarding `COc1cc2ncnc(Nc3cccc(Cl)c3)c2cc1OC`, the result_ITMP worked out at 5.64%.

As for `CCCCc1ccc2[nH]c(NC(=O)OC)nc2c1`, the result_ITMP was -1.87%.

Turning to `CCCN1CCC[C@@H]2Cc3nc(N)ncc3C[C@H]21`, the result_ITMP came out at 1.65%.

Turning to `O=C(O)c1ccccc1O`, the result_ITMP was determined as 0.08%.

In the case of `CC1/C=C/C=C/C=C/C=C/C=C/C=C/C=C/C(OC2O[C@H](C)[C@@H](O)[C@H](N)[C@@H]2O)CC(O)C(C(=O)O)C(O)CC(=O)CC(O)CC(O)CC(O)CC(=O)CCCC(=O)CC(=O)OC1C(C)CC(C)C(O)CC(=O)c1ccc(N)cc1` (some centres unmarked), the result_ITMP is -4.6%.

`CSc1ccc(C(=O)N[C@@H]2CCCC[C@@H]2NC(=O)CNC(=O)c2cc(C(F)(F)F)ccc2NC(=O)NC(C)C)cc1`: the result_ITMP is -1.71%.

With `C[C@H](NC(=O)CCc1nc2ccccc2c(=O)[nH]1)c1ccccc1` [R4A_0003503_001 / SPE_K24283677], the result_ITMP is recorded as -1.61%.

For the compound `CCOC(=O)c1cnc2c(cnn2CC)c1NN=C(C)C`, the result_ITMP was -1.97%.

Consider `C[C@@H]1C[C@H]2[C@@H]3CCC4=CC(=O)C=C[C@]4(C)[C@@]3(Cl)[C@@H](O)C[C@]2(C)[C@@]1(OC(=O)c1ccco1)C(=O)CCl`, for which the result_ITMP is -4.87%.

As to `CN1CCCN(C(c2ccccc2)c2ccc(Cl)cc2)CC1` (centres unmarked), the result_ITMP was found to be 82.5%.

As for `CCOC(=O)[C@H](CCc1ccccc1)N[C@@H](C)C(=O)N1C(=O)N(C)C[C@H]1C(=O)O`, the result_ITMP was 1.23%.

In the case of `CS(=O)(=O)c1ccc(-c2nnc(/C=C/c3nnc(-c4ccc(C#N)cc4)o3)n2-c2ccccc2Cl)nc1`, the result_ITMP was -0.08%.

On to `N[C@H](C(=O)O)c1ccc(O)cc1`, for which the result_ITMP came to 0.07%.

Turning to `CCOc1ccc2nc(S(N)(=O)=O)sc2c1`, the result_ITMP worked out at 6.44%.

As for `Cc1ncc(C[n+]2csc(CCOP(=O)(O)OP(=O)(O)O)c2C)c(N)n1`, the result_ITMP was -2.57%.

In the case of `CC[C@H](CO)Nc1nc(NCc2ccccc2)c2ncn(C(C)C)c2n1`, the result_ITMP came to 2.12%.

As for `CCc1nc(C)ccc1O`, the result_ITMP is -4.78%.

On to `OCCN(CCO)c1nc(N2CCCCC2)c2nc(N(CCO)CCO)nc(N3CCCCC3)c2n1`, for which the result_ITMP is -1.93%.

Regarding `Cc1ccc(NC(=O)c2cccc(C(C)(C)C#N)c2)cc1Nc1ccc2ncn(C)c(=O)c2c1`, the result_ITMP is on record as -0.37%.

Regarding `O=c1[nH]c2ccccc2n1CCCN1CCC(n2c(=O)[nH]c3cc(Cl)ccc32)CC1`, the result_ITMP is recorded as 1.97%.

`O=C(O)c1ccccc1C(=O)Nc1ccc(S(=O)(=O)Nc2nccs2)cc1`: the result_ITMP is on record as -2.23%.

Take `O=S(=O)([O-])c1ccc(O)cc1`: the result_ITMP is reported as -0.61%.

Consider `CN(c1nccc(=O)[nH]1)C1CCN(c2nc3ccccc3n2Cc2ccc(F)cc2)CC1`, for which the result_ITMP turned out to be 0.52%.

For `CCS(=O)(=O)N1CCC[C@@H]2CN3CCc4cc(OC)ccc4[C@@H]3C[C@@H]21`, the result_ITMP was -5.32%.

Regarding `Cc1ccc(F)c(NC(=O)Nc2ccc(-c3cccc4[nH]nc(N)c34)cc2)c1`, the result_ITMP was found to be 9.27%.

Take `O=c1onc2cnc3ccccc3n12`: the result_ITMP is recorded as -4.06%.

Turning to `C[C@]12CC[C@@H]3c4ccc(OC(=O)c5ccccc5)cc4CC[C@H]3[C@@H]1CC[C@@H]2O`, the result_ITMP is recorded as -1.67%.

For the compound `O=C(/C=C\n1cnc(-c2cc(C(F)(F)F)cc(C(F)(F)F)c2)n1)N1CC(F)(F)C1`, the result_ITMP is on record as -11.5%.

In the case of `O=C(O)Cc1ccc(CCNS(=O)(=O)c2ccc(Cl)cc2)cc1`, the result_ITMP is recorded as -3.05%.

Turning to `CN(CC(=O)O)C(=N)N`, the result_ITMP is -3.9%.

For `NC(=O)c1nnn(Cc2cc(Cl)c(C(=O)c3ccc(Cl)cc3)c(Cl)c2)c1N`, the result_ITMP is -4.77%.

As to `CN1CCN(C(c2ccccc2)c2ccccc2)CC1`, the result_ITMP worked out at 16.1%.

Take `CC(C)OC(=O)C1=CN(C(=O)c2ccc(F)c(F)c2)CC(C)(C)c2c1[nH]c1ccccc21`: the result_ITMP is -4.6%.

For the compound `COC(=O)[C@@H]1CC2=CC(=O)CC[C@]2(C)[C@@]23O[C@@H]2C[C@@]2(C)[C@@H](CC[C@@]24CCC(=O)O4)[C@H]13`, the result_ITMP is listed as -1.87%.

`Cc1cccc(C)c1NC(=O)/N=C1\CCCN1C`: the result_ITMP is -2.86%.

As for `C[C@H](Cc1ccc(OCC(=O)[O-])cc1)NC[C@H](O)c1cccc(Cl)c1`, the result_ITMP was -1.85%.

`C=C[C@@]1(C)CC(=O)[C@]2(O)[C@@]3(C)[C@@H](O)CCC(C)(C)[C@@H]3C(OC(=O)CCN(C)C)C(OC(C)=O)[C@@]2(C)O1` (some centres unmarked): the result_ITMP worked out at 4.63%.

On to `Cc1n[nH]c2ccc(-c3cncc(OC[C@@H](N)Cc4ccccc4)c3)cc12`, for which the result_ITMP was determined as 17.2%.

Turning to `Cc1c(-c2cnccn2)ssc1=S`, the result_ITMP is on record as -6.92%.

On to `N#Cc1cnc2cnc(NCc3cccnc3)cc2c1Nc1ccc(F)c(Cl)c1`, for which the result_ITMP was -2.18%.

As for `S=C([S-])N1CCCC1`, the result_ITMP was -0.32%.

For the compound `Cc1cc(C)c(S(=O)(=O)Nc2ccccc2C(F)(F)F)c(C)c1`, the result_ITMP is -1.24%.

`O=c1[nH]c2ccccc2n1CCCN1CCN(C(c2ccccc2)c2ccccc2)CC1`: the result_ITMP is reported as 26.4%.

Consider `Nc1nc(Cl)nc2c1ncn2[C@@H]1O[C@H](CO)[C@@H](O)[C@H]1O`, for which the result_ITMP is 1.94%.

Consider `CCC(Oc1ccc(Cl)cc1)C(=O)OC1CC2CCC(C1)N2C` (centres unmarked), for which the result_ITMP was found to be 24.8%.

With `O=c1c(O[C@@H]2O[C@H](CO)[C@H](O)[C@H](O)[C@H]2O)c(-c2ccc(O)c(O)c2)oc2cc(O)cc(O)c12`, the result_ITMP is -4.4%.

Consider `COc1cc(COc2cc(N)c(Cl)cc2C(=O)CCC2CCN(CCNS(C)(=O)=O)CC2)cc(OC)c1`, for which the result_ITMP came out at 23.6%.

`CC(C)[C@H](CO)Nc1nc(Nc2ccc(C(=O)O)c(Cl)c2)c2ncn(C(C)C)c2n1`: the result_ITMP is -1.36%.

Take `CC(C)[N+](C)(CCC(C(N)=O)(c1ccccc1)c1ccccc1)C(C)C`: the result_ITMP is on record as -2.21%.

In the case of `Oc1c(I)cc(I)c(O)c1I`, the result_ITMP was -3.72%.

In the case of `COc1ccc(-n2c(SCCCN3C(=O)c4cccc5cccc(c45)C3=O)nnc2-c2ccncc2)cc1`, the result_ITMP is reported as -1.09%.

As for `CCCN(C/C=C/I)C1CCc2cccc(O)c2C1` (centres unmarked), the result_ITMP was 2.65%.

On to `C[N+]1([O-])[C@@H]2C[C@@H](OC(=O)[C@H](CO)c3ccccc3)C[C@H]1[C@@H]1O[C@@H]12` (some centres unmarked), for which the result_ITMP is -4.04%.

In the case of `CCCN(CCC)C(=O)C(CCC(=O)[O-])NC(=O)c1ccccc1` (centres unmarked), the result_ITMP is reported as -3.27%.

For `Cc1cccc(CC(=O)N2CCc3c2ccc(-c2cn(C)c4ncnc(N)c24)c3F)n1`, the result_ITMP is reported as -7.01%.

Take `COc1cccc(Nc2ncnn3ccc(CN4CC[C@@H](N)[C@H](O)C4)c23)c1`: the result_ITMP came to 59%.

As for `CCN(CC)CCNC(C(=O)OCCC(C)C)c1ccccc1` (centres unmarked), the result_ITMP is 13.7%.

In the case of `CC(C)OC(=O)OCOP(=O)(CO[C@H](C)Cn1cnc2c(N)ncnc21)OCOC(=O)OC(C)C`, the result_ITMP is -1.1%.

On to `Nc1cc(Cl)c(NC2=NCCN2)c(Cl)c1`, for which the result_ITMP is listed as -1.25%.

Turning to `Cn1cc(CCn2cnc(-c3cnn(C)c3)c2-c2ccc(C#N)cc2)cn1`, the result_ITMP was -7.55%.

For `CCn1c2ccccc2c2cc(CNCc3ccccc3OC)ccc21`, the result_ITMP is recorded as 56.5%.

Take `CC(C(=O)O)c1ccc(-c2ccccc2)c(F)c1` (racemic): the result_ITMP is 0.44%.

With `CN(C)C(=O)[C@H](O)[C@H](Cc1ccccc1)NC(=O)c1cc2cc(Cl)ccc2[nH]1`, the result_ITMP is listed as -3.36%.

`CC1(C(=O)O)NCCc2cc(O)c(O)cc21` (centres unmarked): the result_ITMP was -1.39%.

For `C=CCN1CC[C@]23c4c5ccc(O)c4O[C@H]2/C(=N/NC(=O)c2ccccc2)CC[C@@]3(O)[C@H]1C5`, the result_ITMP is listed as -0.8%.

In the case of `Cl/C(=C\n1cncn1)c1ccc(Cl)cc1Cl`, the result_ITMP is -1.41%.

`CCC(=O)NC1Cc2ccccc2C(c2ccccc2)C1` (centres unmarked): the result_ITMP is listed as -2.11%.

As for `O=C(Oc1cc(S(=O)(=O)c2ccccc2)ccc1[N+](=O)[O-])c1ccc(Cl)cc1`, the result_ITMP was -3.25%.

For `CC(C)(C)c1cc(C(C)(C)C)c2c(c1)C(O)(C(F)(F)F)C(=O)O2` (racemic), the result_ITMP is listed as -2.16%.

For `COC[C@H](C)Oc1cc(O[C@@H](C)Cc2ccccc2)cc(C(=O)Nc2ccc(C(=O)O)cn2)c1`, the result_ITMP is on record as -2.14%.
